# Test results reported in PubChem BioAssay (NCATS).
# Inconclusive means that the source gave no clear call. Potencies of inconclusive entries are left out as doubtful fits.
# Target: Voltage-gated inwardly rectifying potassium channel KCNH2 (Homo sapiens) (UniProt Q12809)
# Test: qHTS Assay for Small Molecule Inhibitors of the Human hERG Channel Activity (AID 588834);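 further: lower thallium flux fluorescence means stronger hERG block; nearly all actives have a fitted effect of over 50% in size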
# Conditions: U2OS BacMam hERG, FluxOR thallium flux fluorescence; active means well fitted inhibition curve with a large enough effect; inconclusive means small, poorly fitted or top-dose-only effect; inactive means flat fitted curve, though single readings scatter
# Outline: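 Kinetic FDSS fluorescence; U2OS + hERG BacMam (~100 virus particles/cell); FluxOR Tl+ flux; ~10 min cpd; AC50 (Hill).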
# Potency means the concentration at half of the fitted maximal effect; tags describe the fitted curve by direction and shape.
# UniProt Q12809, sequence (Q12809 whole entry, looked up): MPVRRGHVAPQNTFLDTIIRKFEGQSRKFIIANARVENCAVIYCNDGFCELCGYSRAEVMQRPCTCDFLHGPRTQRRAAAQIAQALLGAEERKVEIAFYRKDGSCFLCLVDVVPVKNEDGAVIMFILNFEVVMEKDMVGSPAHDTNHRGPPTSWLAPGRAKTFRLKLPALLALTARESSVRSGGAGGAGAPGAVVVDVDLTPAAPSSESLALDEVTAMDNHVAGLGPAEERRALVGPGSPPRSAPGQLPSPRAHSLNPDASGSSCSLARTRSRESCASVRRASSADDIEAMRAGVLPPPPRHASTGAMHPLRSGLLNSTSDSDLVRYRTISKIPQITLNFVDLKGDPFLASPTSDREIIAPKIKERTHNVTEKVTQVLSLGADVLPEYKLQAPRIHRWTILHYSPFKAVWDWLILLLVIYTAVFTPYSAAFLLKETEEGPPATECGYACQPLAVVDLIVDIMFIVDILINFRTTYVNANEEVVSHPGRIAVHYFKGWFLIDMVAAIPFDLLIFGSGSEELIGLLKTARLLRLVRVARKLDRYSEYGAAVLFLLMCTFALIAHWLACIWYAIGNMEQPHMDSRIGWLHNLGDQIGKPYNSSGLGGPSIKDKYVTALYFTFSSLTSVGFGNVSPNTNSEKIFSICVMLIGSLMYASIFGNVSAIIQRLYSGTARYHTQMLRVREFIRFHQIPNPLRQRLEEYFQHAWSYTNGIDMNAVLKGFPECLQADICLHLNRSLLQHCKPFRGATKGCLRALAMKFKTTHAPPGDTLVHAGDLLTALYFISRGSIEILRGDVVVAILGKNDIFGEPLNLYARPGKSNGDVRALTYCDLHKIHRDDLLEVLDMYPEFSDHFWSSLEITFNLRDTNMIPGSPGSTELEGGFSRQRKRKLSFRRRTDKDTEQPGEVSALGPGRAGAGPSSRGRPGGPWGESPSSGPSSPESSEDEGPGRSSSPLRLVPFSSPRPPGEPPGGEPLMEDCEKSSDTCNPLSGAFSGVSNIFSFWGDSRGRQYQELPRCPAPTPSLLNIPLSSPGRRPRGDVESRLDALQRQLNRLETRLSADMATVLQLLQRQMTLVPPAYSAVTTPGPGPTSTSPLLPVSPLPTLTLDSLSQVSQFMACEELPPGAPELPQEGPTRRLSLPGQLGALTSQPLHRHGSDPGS
structure (smiles),measurement,value
NCCCC[C@H](N)C(=O)O,Potency,"inconclusive [inhibitor, single point]"
